Experimental data reported in PubChem BioAssay AID1919003 (Molecular Pharmacology Branch, DTP, NCI, 2023).
A number of entries come with more than one value. This is not the full list of results. An entry can have further records. Values given together repeat one measurement in other runs, samples, wells, individuals or studies. Signs of the kind (2×) count equal records among those shown.

Tested on: 786-0 complex spheroids with HUVEC/MSC, growth % test/control
Experiment: Anticancer human tumor 786-0 cell line growth inhibition [AhR];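 also: compound exposure lasted seven days before the read-out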
Settings: stronger effect = lower value
Excerpt: Multicellular complex tumor spheroid response to aryl hydrocarbon receptor antagonists in combination with a variety of drugs and investigational agents in selected tumor cell lines
The current study was undertaken to assess response to aryl hydrocarbon receptor antagonists in combination with standard-of-care drugs and investigational agents in solid tumor complex spheroid models. Complex spheroids include a stromal component modeled by human endothelial cells (HUVEC) and fibroblasts modeled by human mesenchymal stem cells (MSCs). The concentration ranges selected for each drug and investigational agent were based upon clinically achievable concentrations if the clinical Cmax of the agent was known.
Compounds. The drugs and investigational agents: BAY 2416964 (NSC825713), GNF351 (NSC835774), CH-223191 (NSC835775), CPI-455 (NSC825282), aza-TdCyd (NSC777586), decitabine (NSC127716), belinostat (NSC758774), entinostat (NSC756642), pevonedistat (NSC761192), tazemetostat (NSC777109), talazoparib (NSC765396), olaparib (NSC753686), selinexor (NSC780203), nedisertib (M3814, NSC802822), bortezomib (NSC756655), venetoclax (NSC766270), doxorubicin (NSC123127), elimusertib (BAY189344, NSC800525), ceralasertib (AZD6738, NSC777638), TAK-243 (NSC785004), alisertib (NSC759677), etoposide (NSC141540), topotecan (NSC609699), eribulin (NSC707389), gemcitabine (NSC613327), carboplatin (NSC241240), cisplatin (NSC119875), and SN-38 (NSC673596) were obtained from the National Cancer Institute (NCI) Developmental Therapeutics Program Chemical Repository (32). The FDA-approved anticancer drug set is available from the Developmental Therapeutics Program at https://dtp.cancer.gov/organization/dscb/obtaining/available plates.htm. […] The stock solutions were prepared in dimethyl sulfoxide (DMSO, Sigma-Aldrich, St. Louis, MO, cat. D2650), except for the platinum compounds which were prepared in saline (Quality Biological, Gaithersburg, MD, cat. 114-055-101), at 800-fold the tested concentration and stored at -70 degrees C prior to their use. All drugs and investigational agents were tested over a range starting from a high concentration at or near the clinical Cmax and decreasing in half-log increments. If the clinical Cmax for an agent had not been determined, the highest concentration tested was 10 microM (Table 1).
Cell Culture. All cells were maintained in an incubator at 37 degrees C and 5% CO2 with 95% humidity. The PDC lines were cultured according to standard operating procedures established by the NCI PDMR (https://pdmr.cancer.gov). Briefly, all PDCs were thawed and cultured in Matrigel-coated flasks prepared with a working solution of 1X Ham's F-12 nutrient mix, without supplementation (Invitrogen, Waltham, MA, cat. 11765054), 100 U/mL penicillin-streptomycin (Invitrogen, cat. 15140122), and 2.5% Matrigel (Corning Inc., Corning, NY, cat. 354248) for the first three passages. All PDCs were cultured in complete DMEM/F-12 media containing advanced DMEM/F-12 (Invitrogen, cat. 12634028), 4.9% defined fetal bovine serum, heat inactivated (HyClone Laboratories Inc., Logan, UT, cat. SH30070.03HI), 389 ng/mL hydrocortisone (Sigma-Aldrich, cat. H4001), 9.7 ng/mL human EGF recombinant protein (Invitrogen, cat. PHG0313), 23.4 microg/mL adenine (Sigma-Aldrich, cat. A2786), 97.3 U/mL penicillin-streptomycin (Invitrogen, cat. 15140122), 1.9 mM L-glutamine (Invitrogen, cat. 25030081), and 9.7 microM Y-27632 dihydrochloride (Tocris Bioscience, Bristol, United Kingdom, cat. 1254). The PDCs were cultured in complete DMEM/F12 media without 10 microM Y-27632 dihydrochloride for at least two passages prior to the screen. The established cell lines NCI-H1341 and […] were cultured in DMEM/F-12, HEPES (Invitrogen, cat. 11330032), 5% defined fetal bovine serum (HyClone Laboratories Inc., cat. SH30070.03), ITS premix universal culture supplement [insulin (5 microg/mL), transferrin (5 microg/mL), and selenious acid (5 ng/mL)] […]

SMILES	viability, T/C (compound alone 0.316 µM)	viability, T/C (compound alone 1 µM)	viability, T/C (compound alone 3.16 µM)	viability, T/C (compound alone 10 µM)
CC(CO)NC(=O)c1cc(-c2ccc(Cl)cc2)nn(-c2cnn(C)c2)c1=O (centres undefined)	101, 83.9, 65.5, 76.2, 93.5, 112, 102 (2×), 92.1, 97.9 (2×), 99.2, 105 (2×), 80.3, 104, 96.6, 94.2, 106, 93.9, 94.3%	94, 72, 86.3, 78.3, 94.2, 103, 97.4, 99.9, 100, 101, 93.3, 104 (2×), 95.9, 111, 96.9, 102, 94.5, 99.5, 92.8, 93.9%	98.8, 74.3, 80.3, 99.1, 106 (3×), 110, 90.9, 104, 108, 100 (2×), 98.4, 105, 102 (2×), 113, 107%	111, 137, 105 (4×), 109 (2×), 120 (2×), 98.8, 102, 107 (2×), 106, 113, 97.3, 112, 115%
Cc1cncc(-c2nc(NCCc3c[nH]c4ccccc34)c3ncn(C(C)C)c3n2)c1	97.7, 106, 123 (2×), 113 (2×), 108 (2×), 115 (2×), 121 (3×), 103, 119, 127, 117, 116, 109, 110%	97.3, 96, 132, 110, 98, 108 (2×), 112 (4×), 106, 97.2, 115, 114 (3×), 98.5, 103, 92%	67.1, 68.8, 78.4, 82, 77.2, 89.6, 91.2, 69.6, 63.8, 82.7, 74.6, 71.3, 75.5, 79.8, 87.8, 74.8, 65.1, 76.2, 62.6, 57.9%	–
Cc1ccccc1N=Nc1ccc(NC(=O)c2ccnn2C)c(C)c1	–	–	81.9, 99.1, 97.3, 100, 91.5, 95.3, 96.5, 85.4, 90.6, 82.5, 84.5, 80, 88.7, 81.2, 98.5, 98.1, 94.6, 109, 103%	86.8 (2×), 99.6, 98.9, 95.2, 91.3, 91.5, 92.6, 95, 110, 97, 95.5, 104, 79.7, 85.7, 90.5, 106, 100, 92.8, 90.4, 89.8%
